Data taken from the supplement of paper PMC12217912.
This is one part of the list. The full chains were built here from the parent and the listed change. Inactive controls read about 0.05.

B1: TEV protease; numbered along this chain (parent)
chain: MGESLFKGPRDYNPISSSICHLTNESDGHTTSLYGIGFGPFIITNKHLFRRNNGTLVVQSLHGVFKVKDTTTLQQHLVDGRDMIIIRMPKDFPPFPQKLKFREPQREERICLVTTNFQTKSMSSMVSDTSCTFPSGDGIFWKHWIQTKDGQCGSPLVSTRDGFIVGIHSASNFTNTNNYFTSVPKNFMELLTNQEAQQWVSGWRLNADSVLWGGHKVFMVKPEEPFQPVKEATQL

Variants of: B1
Assay: raw area under fraction-flipped curve 0-4 h after induction (AUC4h, not background-subtracted), DNA-recorder readout of cleavage of the substrate (dimensionless); higher = more cleavage of the substrate by the protease variant
Settings: temperature: 34 °C; time window: 0-4 h after rhamnose induction
Description: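 In vivo DNA recorder in E. coli TOP10(DE3) ΔrhaA at 34 °C. Each TEVp single-site mutant (parent TEVp 0) is paired with a single-site variant of the 7-mer TEVs (canonical ENLYFQ|S). The substrate sits between flexible linkers in a Bxb1-sfGFP-TEVs-SsrA fusion, so cleavage stabilises Bxb1 and speeds flipping of a recombination array, read by NGS. The value is the raw area under the fraction-flipped curve over 0-4 h after rhamnose induction (AUC4h), with ≥20 reads per time point. It is not background-subtracted; inactive controls average about 0.047.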
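Further: Bxb1 expression induced with 0.2% (w/v) L-rhamnose at OD600 near 0.5, cultures sampled hourly, flipped fraction per protease–substrate barcode pair counted by paired-end Illumina sequencing.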

Row | Variant | area with substrate ENLYFQC | area with substrate ENLYFQE | area with substrate ENLYFQH | area with substrate ENLYFQM | area with substrate ENLYFQR | area with substrate ENLYFQS | area with substrate ENLYFQV | area with substrate ENLYFQW | area with substrate ENLYFQG | area with substrate ENLYFQK | area with substrate ENLYFQN | area with substrate ENLYFQP | area with substrate ENLYFQT | area with substrate ENLYFQF | area with substrate ENLYFQL | area with substrate ENLYFQD | area with substrate ENLYFQI | area with substrate ENLYFQQ | area with substrate ENLYFQY
1 | F6P | 0.096 | 0.068 | 0.0656 | 0.0691 | 0.0457 | 0.0898 | 0.0798 | 0.0621 | – | – | – | – | – | – | – | – | – | – | –
2 | S171Q | 0.0761 | – | 0.0633 | 0.0627 | – | 0.0721 | – | 0.0631 | 0.0613 | 0.0598 | 0.0561 | 0.0469 | 0.0534 | – | – | – | – | – | –
3 | F226T | 0.141 | – | 0.0744 | 0.109 | – | 0.115 | – | 0.0369 | 0.0993 | 0.079 | 0.0857 | – | 0.0653 | 0.0824 | 0.0594 | – | – | – | –
4 | W212R | 0.0709 | 0.0594 | – | 0.0529 | 0.07 | 0.0608 | – | 0.0563 | – | 0.0615 | 0.0576 | 0.0618 | 0.0533 | 0.0685 | – | 0.0667 | – | – | –
5 | W212C | 0.127 | – | 0.082 | – | – | 0.111 | – | 0.0081 | 0.096 | 0.0462 | 0.0667 | 0.0658 | 0.0571 | – | 0.0603 | – | 0.0554 | – | –
6 | T71Q | 0.101 | – | – | 0.107 | – | 0.101 | 0.0665 | – | 0.0833 | – | 0.0696 | 0.0555 | 0.0624 | 0.0824 | 0.0631 | 0.0785 | – | 0.0684 | –
7 | T71K | 0.1 | 0.0679 | 0.0687 | 0.0973 | 0.0671 | 0.0964 | 0.0744 | – | 0.0886 | 0.0663 | 0.0886 | – | 0.0566 | 0.0791 | 0.0426 | – | – | – | 0.0914
8 | T71R | 0.158 | – | 0.092 | 0.132 | 0.0586 | 0.0987 | 0.0381 | 0.0787 | 0.0614 | 0.0534 | 0.0754 | – | 0.0678 | – | 0.0522 | – | 0.0523 | – | 0.0713
9 | S127C | 0.0953 | – | 0.0768 | – | 0.0687 | 0.106 | 0.0733 | 0.096 | 0.118 | 0.0661 | 0.0905 | 0.0643 | 0.0704 | 0.0797 | – | – | 0.0574 | 0.0969 | 0.103
10 | S127Q | 0.124 | – | – | 0.097 | 0.0622 | 0.11 | 0.0729 | 0.0652 | 0.0061 | 0.0647 | 0.0707 | – | – | 0.101 | 0.0551 | 0.064 | 0.0633 | – | 0.0839
11 | T174W | 0.105 | 0.0453 | 0.0878 | – | – | 0.106 | 0.054 | – | 0.133 | – | – | 0.0553 | – | – | – | 0.0777 | 0.0612 | – | 0.0673
12 | S169P | 0.0589 | 0.0644 | 0.0695 | – | 0.0578 | 0.0582 | 0.0563 | – | 0.0632 | 0.0661 | 0.0552 | 0.0324 | 0.0517 | – | 0.0556 | – | 0.0613 | 0.057 | 0.0554
13 | R87A | 0.0993 | – | – | 0.0812 | 0.0584 | 0.101 | – | – | 0.0885 | – | – | 0.054 | – | – | 0.0611 | 0.0864 | – | 0.069 | –
14 | R87Y | 0.121 | 0.0651 | – | 0.0722 | 0.0521 | 0.0958 | – | – | – | 0.0592 | 0.0784 | 0.0568 | 0.072 | – | 0.0822 | – | – | – | –
15 | L5A | 0.131 | – | 0.0772 | 0.0767 | 0.0602 | 0.114 | 0.0666 | – | 0.1 | 0.0697 | 0.0766 | – | 0.0577 | – | 0.0632 | – | 0.0626 | – | –
16 | G150D | 0.0596 | – | – | 0.0644 | 0.0557 | 0.0618 | – | – | 0.0602 | – | 0.0676 | – | 0.0439 | – | – | 0.0558 | 0.051 | – | –
17 | Q146W | 0.146 | – | – | – | – | 0.152 | 0.0441 | 0.0724 | – | 0.0381 | 0.0993 | – | – | – | – | – | 0.053 | – | 0.0753
18 | G138K | 0.0812 | – | 0.0811 | – | 0.0433 | 0.0883 | – | 0.0686 | 0.0689 | 0.0611 | 0.0536 | – | 0.0626 | 0.0078 | – | 0.0526 | – | – | 0.0624
19 | D149L | 0.0898 | – | – | – | 0.0604 | 0.0816 | 0.0593 | 0.0475 | 0.0956 | 0.0637 | – | – | 0.0562 | 0.053 | 0.0589 | – | 0.0609 | 0.0548 | 0.0642
20 | Q234Y | 0.154 | 0.0616 | 0.0669 | 0.0884 | 0.0547 | 0.0957 | – | 0.0739 | 0.0823 | 0.0629 | 0.0715 | 0.0682 | 0.071 | 0.0498 | 0.0576 | 0.0579 | 0.0423 | – | 0.0744
21 | C111G | 0.114 | – | – | – | 0.0568 | 0.0969 | – | – | – | – | 0.0509 | – | 0.0595 | – | 0.0339 | 0.0817 | 0.0491 | – | 0.0848
22 | V67F | 0.0958 | – | – | 0.0878 | 0.0638 | 0.0937 | 0.0604 | 0.0862 | – | 0.0748 | 0.076 | – | 0.0586 | 0.0818 | 0.0454 | 0.0624 | 0.0636 | – | 0.0923
23 | V67I | 0.109 | 0.0509 | 0.0863 | – | – | 0.103 | 0.0584 | 0.0601 | 0.0906 | 0.0514 | 0.0472 | – | – | – | – | 0.046 | – | – | –
24 | V67K | 0.0591 | – | 0.076 | – | 0.059 | 0.0671 | 0.07 | 0.039 | 0.0938 | 0.0542 | – | – | – | – | – | – | 0.0585 | – | –
25 | C152N | 0.0963 | – | – | 0.0549 | 0.0601 | 0.0573 | – | 0.0517 | 0.0532 | – | 0.041 | 0.0453 | 0.0485 | 0.0642 | 0.0603 | 0.043 | – | – | 0.0546
26 | S123C | 0.162 | – | 0.114 | 0.0857 | 0.0606 | 0.0999 | 0.0603 | 0.0686 | 0.0876 | 0.0661 | 0.0478 | 0.0741 | 0.0661 | – | 0.0604 | 0.0839 | 0.0427 | – | 0.0439
27 | K221W | 0.0917 | – | – | – | – | 0.0843 | – | 0.0644 | 0.0645 | 0.0626 | 0.0755 | – | 0.057 | 0.0708 | – | 0.0427 | – | – | 0.0571
28 | K221G | 0.101 | – | 0.0488 | 0.0543 | – | 0.0949 | 0.0608 | – | – | 0.0676 | 0.0737 | 0.0354 | – | 0.0554 | – | 0.0139 | 0.0506 | 0.0591 | 0.0411
29 | Y34S | 0.0716 | – | – | 0.0832 | – | 0.0949 | – | – | – | 0.0617 | – | – | 0.0518 | 0.0491 | 0.0549 | – | 0.0562 | – | –
